# Reference: PubChem BioAssay AID485294 (National Center for Advancing Translational Sciences (NCATS), 2010)
# Among all 370,000 compounds or so, about 150 (0.041%) were called active. The shares of active, inactive and inconclusive entries below differ from those in the screen. Calls come from the whole dose curve; as a rule, active = well fitted inhibition curve with a large enough effect; inconclusive = small, poorly fitted or top-dose-only effect; inactive = flat fitted curve, though single readings scatter. No potency is given beside an inconclusive call; the fits are too rough.
# Molecular target: Beta-lactamase (Escherichia coli (strain K12)) (UniProt P00811)
# Assay: qHTS Inhibitors of AmpC Beta-Lactamase (assay with detergent); note: nearly all actives have a fitted effect of over 25% in size
# Conditions: AmpC hydrolysis of nitrocefin, absorbance 480 nm, 0.01% Triton; series mostly up to 114 µM
# Summary of the method: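 AmpC (5.3 nM in the dispensed reagent) in 20 mM phosphate pH 7.0 with 0.01% (detergent screen) or 0.0001% Triton X-100 was preincubated with compounds for 15 min at room temperature. Nitrocefin was then added from an 800 uM solution, and hydrolysis was followed at 480 nm.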
# Potency is the fitted concentration of half-maximal effect; tags give direction and shape of the fitted curve.
# Sequence of UniProt P00811 (P00811 whole entry, looked up): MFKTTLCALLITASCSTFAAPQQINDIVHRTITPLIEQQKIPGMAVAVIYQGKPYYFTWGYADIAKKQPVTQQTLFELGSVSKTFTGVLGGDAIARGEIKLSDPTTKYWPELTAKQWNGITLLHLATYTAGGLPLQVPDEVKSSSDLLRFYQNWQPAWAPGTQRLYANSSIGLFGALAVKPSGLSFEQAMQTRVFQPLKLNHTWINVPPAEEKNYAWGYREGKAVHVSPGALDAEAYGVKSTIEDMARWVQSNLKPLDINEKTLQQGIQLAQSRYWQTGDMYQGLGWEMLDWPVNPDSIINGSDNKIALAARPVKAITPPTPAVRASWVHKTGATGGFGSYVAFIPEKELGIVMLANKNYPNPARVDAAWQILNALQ
row,SMILES,Potency
1,NNC(=O)c1ccc(O)cc1,inactive
2,C#CCn1c(=NC(=O)c2ccc(Br)s2)sc2cc(NC(C)=O)ccc21,"inconclusive [inhibitor, full curve, poor fit]"
3,COc1ccccc1-c1nnc(Nc2nc3c(OC)cccc3s2)o1,inactive
4,COC(=O)c1ccc(COc2nc(C)cc(C)c2C#N)o1,"inconclusive [inhibitor, full curve]"
5,Oc1ccccc1O,"inconclusive [inhibitor, full curve, poor fit]"
6,COC(=O)CSc1nc(N)c(C#N)c(CC(C)C)c1C#N,"inconclusive [inhibitor, partial curve]"
7,CC1CCCC(NC(=O)c2ccc3c(c2)N(Cc2ccccc2)C(=O)CS3=O)C1C (stereo not drawn),"inconclusive [inhibitor, full curve, poor fit]"
8,Cc1cnc(C(=O)N2CCCC(C(=O)c3ccc(Cl)cc3C)C2)cn1 (stereo not drawn),"inconclusive [inhibitor, single point]"
9,CCCCNC(=O)NCc1cnn(C)c1C,"inconclusive [inhibitor, partial curve, poor fit]"
10,CCCCn1c(N)c(N(CCOC)C(=O)c2c(CC)noc2C)c(=O)[nH]c1=O,"inconclusive [inhibitor, full curve, poor fit]"
11,O=C(Nn1cnnc1)c1cccc(S(=O)(=O)N2CCOCC2)c1,"inconclusive [inhibitor, single point]"
12,Cc1ccc(S(=O)(=O)CCC(=O)OCC(=O)N(C)C2CCS(=O)(=O)C2)cc1 (stereo not drawn),"inconclusive [inhibitor, full curve]"
13,Cc1ccc(OCc2nc3ccccc3[nH]2)cc1,"inconclusive [inhibitor, full curve, poor fit]"
14,CC1CCCCN1C(=O)c1cc(S(=O)(=O)N2CCCCC2)c[nH]1 (stereo not drawn),"inconclusive [inhibitor, partial curve, poor fit]"
15,Cc1ccc(OC(=O)c2ccc(S(=O)(=O)N(C)C)cc2)c(-n2nc3ccccc3n2)c1,"inconclusive [inhibitor, single point]"
16,Cc1ccc(/C=N/NC(=O)c2ccco2)s1,"inconclusive [inhibitor, partial curve]"
17,Cc1ccnc(NC(=O)CNC(=O)c2ccc(Br)o2)c1,"inconclusive [inhibitor, full curve]"
18,Cc1ccccc1-c1nc(C#N)c(NCc2ccco2)o1,"inconclusive [inhibitor, full curve, poor fit]"
19,Cc1ccc(Cn2ccnc2C(=O)Nc2ccccc2)cc1,"inconclusive [inhibitor, partial curve]"
20,N#Cc1ccccc1NCc1ccccc1,"inconclusive [inhibitor, full curve]"
21,CCOC(=O)c1cc2c(=O)c3ccccc3oc2nc1C,inactive
22,O=C(Cc1cccc2ccccc12)Nc1nnc(-c2cccc([N+](=O)[O-])c2)s1,"inconclusive [inhibitor, partial curve, poor fit]"
23,Cc1nc2ccc(NC(=O)c3ccc([N+](=O)[O-])cc3)cc2s1,"inconclusive [inhibitor, partial curve]"

row,SMILES,Potency
1,O=C(CSc1nnc(CNC(=O)C23CC4CC(CC(C4)C2)C3)n1-c1ccc(F)cc1)Nc1ccccc1,"inconclusive [inhibitor, full curve, poor fit]"
2,COc1ccc(Cc2nnc(NC(=O)CS(=O)(=O)c3ccc(C)cc3)s2)cc1OC,inactive
3,CCCCN1CCC(COC(=O)c2cc(Cl)c(N)c3c2OCCO3)CC1,inactive
4,CCOC(=O)C1C(=O)NC(SC)=C(C#N)C1c1ccccc1F (stereo not drawn),"inconclusive [inhibitor, partial curve, poor fit]"
5,Cc1nn(C(=O)C2CC2)c(C)c1Sc1ccc(Cl)cc1,"inconclusive [inhibitor, full curve, poor fit]"
6,Nc1cccc2c1C(=O)N(CCOc1ccc(F)cc1)C2=O,inactive
7,O=C1CCN(Cc2ccccc2)CCN1CCOc1ccccc1,inactive
8,COC(=O)c1ccc(Cn2cc(Cl)cn2)cc1,"inconclusive [inhibitor, partial curve, poor fit]"
9,O=C(NCc1ccc2c(c1)OCO2)c1cc(-c2ccccn2)nc2ccccc12,"inconclusive [inhibitor, full curve, poor fit]"
10,CC1=C(C#N)C(=O)N(C2CCS(=O)(=O)C2)C(=O)/C1=C\c1ccc(C)o1 (stereo not drawn),inactive
11,Cc1cc(C(=O)N/N=C2\CC(=O)CC(C)(C)C2)c(C)n1-c1ccc(F)cc1,inactive
12,Cc1ccccc1/C=C1\SC(=S)N(/N=C/c2cc([N+](=O)[O-])ccc2O)C1=O,inactive
13,Cc1ccc(C)c(C(=O)COC(=O)c2cc([N+](=O)[O-])ccc2N2CCOCC2)c1,"inconclusive [inhibitor, single point]"
14,Cc1ccc(-c2nc(NC(=O)c3nn(C)cc3[N+](=O)[O-])sc2C)cc1C,inactive
15,NS(=O)(=O)c1cccc(NC(=O)CCCC2CCCCC2)c1,"inconclusive [inhibitor, partial curve, poor fit]"
16,O=C(COc1coc(CN2CCN(c3ccccc3)CC2)cc1=O)Nc1cccc(F)c1,inactive
17,COc1cccc(OC)c1C(=O)NC(=O)NNc1cc(C(F)(F)F)cc(C)n1,"inconclusive [inhibitor, full curve]"
18,COc1ccc(NC(=O)CCCc2nc(-c3ccco3)no2)c(OC)c1,inactive
19,FC(F)(F)c1cccnc1N1CCN(c2ncnc3nc[nH]c23)CC1,"inconclusive [inhibitor, partial curve, poor fit]"
20,CCOC(=O)N1CCN(c2ccc3nnnn3n2)CC1,"inconclusive [inhibitor, partial curve]"
21,Nc1nc(-c2ccc(Cl)cc2)nn1C(=O)c1cccnc1,"inconclusive [inhibitor, single point]"
22,O=C(O)CCN(CCC(=O)O)c1ccccc1,"inconclusive [inhibitor, full curve, poor fit]"
23,CC1Cc2ccccc2N1c1ncnc2nc[nH]c12 (stereo not drawn),"inconclusive [inhibitor, partial curve, poor fit]"

row,SMILES,Potency
1,N#Cc1ccsc1NC(=O)CN1CCN(S(=O)(=O)c2ccccc2C(F)(F)F)CC1,"inconclusive [inhibitor, full curve, poor fit]"
2,CCONc1ncnc2nonc12,"inconclusive [inhibitor, full curve]"
3,CCN(CC)S(=O)(=O)c1cccc(-c2nnc(SCC(=O)NCCC3=CCCCC3)n2N)c1,"inconclusive [inhibitor, partial curve, poor fit]"
4,COC(=O)C(NC(=O)c1ccccc1)(Nc1nc(C)cs1)C(F)(F)F (stereo not drawn),"inconclusive [inhibitor, partial curve]"
5,CCOc1ccccc1NC(=O)N1CCCC(c2nc(-c3ccc(C)o3)no2)C1 (stereo not drawn),inactive
6,Cn1cc(C(=O)Nc2ccc(F)c(Cl)c2)cn1,"inconclusive [inhibitor, single point]"
7,O=C(NCCN1C(=O)S/C(=C\c2cccnc2)C1=O)c1cccc(OC(F)F)c1,"inconclusive [inhibitor, full curve, poor fit]"
8,Cc1nnc(SCC(=O)NCCN2C(=O)CSC2=O)s1,"inconclusive [inhibitor, full curve, poor fit]"
9,CN1C(=O)/C(=C/c2cccc(Cl)c2)Sc2ccc(C(=O)N3CCOCC3)cc21,"inconclusive [inhibitor, full curve, poor fit]"
10,C/C(Cc1ccccc1)=N\NC(=O)c1ccccn1,"inconclusive [inhibitor, full curve, poor fit]"
11,CCN(CCO)c1ccc(N=Cc2c(O)n(C)c(=S)[nH]c2=O)cc1,inactive
12,O=C(NC(=S)Nc1ccc(S(=O)(=O)Nc2nccs2)cc1)c1cccc(F)c1,"inconclusive [inhibitor, partial curve]"
13,CCOc1ccccc1C1CC(=O)NC(SCC)=C1C#N (stereo not drawn),"inconclusive [inhibitor, full curve, poor fit]"
14,COc1cc(CN(C)Cc2cccc3ccccc23)cc([N+](=O)[O-])c1O,"inconclusive [inhibitor, full curve, poor fit]"
15,COc1ccc(CNc2nc3ccccc3n2C(C)C)cc1,"inconclusive [inhibitor, full curve, poor fit]"
16,CCN(CC)S(=O)(=O)c1ccc(Cl)c(NC(=O)c2cc(Cl)cc(Cl)c2)c1,"inconclusive [inhibitor, single point]"
17,CCn1c(-c2csc(-c3ccc(Cl)cc3)n2)n[nH]c1=S,inactive
18,CN(CC(=O)Nc1cccc(F)c1)C(=O)Cn1c(=O)cnc2ccccc21,"inconclusive [inhibitor, partial curve, poor fit]"
19,CCC(C)NC(=O)C1c2ccccc2C(=O)N1Cc1ccc(OC)cc1OC (stereo not drawn),"inconclusive [inhibitor, full curve, poor fit]"
20,COc1ccccc1NC(=O)/C(=N/OCc1ccc(C#N)cc1)C(C)=O,"inconclusive [inhibitor, full curve]"
21,COc1ccc(CCCNC(=O)C2CCC(=O)N(CCc3cccc(F)c3)C2)cc1 (stereo not drawn),inactive
22,Cc1ccccc1OCC(=O)N(Cc1ccco1)c1c(N)n(Cc2ccccc2)c(=O)[nH]c1=O,inactive
